Data taken from the supplement of paper PMC10338343.
± gives the standard deviation. Over roughly 5,500 sequences, “pre-steady-state target cleavage rate” has its median near 0.1; the highest 2% begin near 0.64. The entries are a selection whose mix differs from that of the whole data set.

tested on: MIWI (PIWIL1) piRISC loaded with piRNA #2 (30 nt); test: pre-steady-state target cleavage rate (min^-1); MIWI and MILI are mouse PIWI proteins and EfPiwi is from a freshwater sponge; tags in brackets are library labels; higher = faster piRNA-guided slicing of the target; details: guide: piRNA #2 5'p-UUAGGUAACCCAGUAGAUCCAGAGGAAUUC; auxiliary factor: 500 nM mouse GTSF1
Outline: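 With or without 500 nM GTSF1 partner protein, 1 nM active affinity-purified piRISC carrying one synthetic guide was mixed with 0.1 nM transcribed, DNA-blocked target RNA library in HEPES–potassium acetate buffer at 33 °C for 0–8 or 0–960 min. Uncleaved targets were sequenced and normalised to depth and to weakly complementary targets, three trials were pooled, and k3 was capped at 0.0001 min^-1. The pre-steady-state cleavage rate came from a burst-and-steady-state fit.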

Sequence	pre-steady-state target cleavage rate
GAAUUCCUCUGCAUCUACUGGGUUACCUUA	0.346 ± 0.047
CUUAAGGACAGGAUCUACUGCGUUACCUAA	0.0331 ± 0.017
CUUUUCGUCUGGAUCUACAGGGUUACCUAA	0.123 ± 0.018
CAAUUCCUCUGAGAUCUACUGGGUUACCUAA	0.545 ± 0.057
CUUAACCUCUGGAAGAACUGGGUUACCUAA	0.142 ± 0.021
CUUAAGCUCUGCAUGUACUGGGUUACCUAA	0.24 ± 0.038
CUUAUCCUCUGGAUCUACUGGGUUUCGUAA	0.259 ± 0.051
CUUAAGCUCUGGAUCUACUGCGAUACCUAA	0.0812 ± 0.018
CUUUACCUCUGGAUCAACUGGGUUACCUAA	0.226 ± 0.024
CUUAACCUCUGGUAUCUACUGGGUUACCUAA	0.442 ± 0.055
CUUAAGGAGAGGGUCUACUGGGUUACCUAA	0.00949 ± 0.0022
CUUUUCCUCUGGAUCUACUGCGUUACCAAA	0.325 ± 0.056
CUUUUCCUCUGCAUCUACUGGGUUUCCUAA	0.0862 ± 0.025
CUUAACCUCUGCAACUACUGGGUUACCUAA	0.301 ± 0.032
CUUUUCCUCUGGAUCUACUGGGUAUCCUAA	0.131 ± 0.029
CUUAACCUGUGGAUCAACUGGGUUACCUAA	0.313 ± 0.029
CUUUUCCUCUGGAUCUUCUGGGUUACCUAA	0.42 ± 0.05
CAAUUCCUCCUGGAUCUACUGGGUUACCUAA	0.577 ± 0.059
CUUUUCCUCUGGAUCAACUGGGUUACCAAA	0.3 ± 0.042
CAAUUCCUCUGGAUCUACAGGGUUACCAAA	0.198 ± 0.03
CUUAAGGAGAGGAUCUACUGGGUAACCAAA	< 0.0001
CUUAUCCACUGGAUCUACUGGGUUAGCUAA	0.155 ± 0.04
CUUUUGCUCUGGAUCUACUGGGUUUCCUAA	0.112 ± 0.017

Sequence	pre-steady-state target cleavage rate
CUUAAGCUCUCGAUCUACUGGGUUACCUUA	0.178 ± 0.018
CUUAAGCUCUGGAUCUACAGGGUUAGCUAA	0.047 ± 0.0092
CUUAAGGAGACCUACUUCUGCGUUACCUAA	0.0056 ± 0.0032
GAUUUCCUCUGGAUCUUCUGGGUUACCUAA	0.154 ± 0.036
CUUAUCCUCUGGAUCUACUAGGUUACCUAA	0.26 ± 0.052
CAAUUGCUGUGGAUCUACUGGGUUACCUAA	0.294 ± 0.054
CUUAAGGUCAGGAUCUACUGGGUUACGUAA	0.173 ± 0.049
CUUAAGGACUGGAUCCACUGGGUUACCUAA	0.154 ± 0.032
CUUAAGCUCUGGAUCUACUGGGUUGACCUAA	0.102 ± 0.012
CUUAAGGUGAGGAUCUACUGGGUUACCUAA	0.0307 ± 0.01
CAAUUCCACUGGAUGUACUGGGUUACCUAA	0.53 ± 0.051
CUUAAGGACUGGAUCUACAGGGUUUCCUAA	0.0286 ± 0.01
CUUUUCCUCUGGAUCUACUGGGAUACCUAA	0.299 ± 0.033
CAAUGUCCUCUGGAUCUACUGGGUUACCUAA	0.16 ± 0.043
CUUUUCCUCUGGAUUACUGGGUUACCUAA	0.522 ± 0.037
CAAUUCCUCUGGAUCAACUGGGUUUCCUAA	0.268 ± 0.048
CUUAAGCUCUGGAUCUACUGGGUUACCGUAA	0.059 ± 0.013
GAAUUCCUCAGGAUCUACUGGCUUACCUAA	0.153 ± 0.015
CUUAACCUGUGGAUCUACUGGGUUACGUAA	0.429 ± 0.05
CAAUUCCUCUGGAUCUAGUGGGUUAGCUAA	0.0711 ± 0.022
CAGAUUCCUCUGGAUCUACUGGGUUACCUAA	0.438 ± 0.064
CUUUUCCUCUGGAUAUACUGGGUUACCUAA	0.628 ± 0.04
CUUAUCCUCUGGAUCUACUGGGUUUGGAUA [g7:g26:cont:t1A]	0.00371 ± 0.0037

Sequence	pre-steady-state target cleavage rate
CAAUUCUCUGGAUCUACUGGGUUACCUAA	0.369 ± 0.056
CUUUUCCUCUGGAUCUAGUGGCUUACCUAA	0.00903 ± 0.0047
CUUAAGGUGUGGAUCUACUGGGUUUCCUAA	0.0165 ± 0.0049
CUUAAGCUCUGGUUCAACUGGGUUACCUAA	0.252 ± 0.022
GAAUUCCUCUGGAUCUACUGGGUUACUUAA	0.555 ± 0.05
CUUAACCUCUGCGAUCUACUGGGUUACCUAA	0.286 ± 0.032
CUUAACCUCUGGAUCUACUGGGUUUCCUAA	0.168 ± 0.028
CUUAACCUCAGGAUCUACUGGGUUACCAAA	0.249 ± 0.051
CUUAAGGAGUGGAAUCUACUGGGUUACCUAA	0.00975 ± 0.0066
CUUAUCCUCUGGUUCUACUGGGAUACCUAA	0.0766 ± 0.021
CUUAAGCUCUGGAUCUAAUGGGUUACCUAA	0.0291 ± 0.0077
CUUAAGGUCUGGAUCUACUGGGUUAGCCUAA	0.185 ± 0.025
CUUAUCCUCUGGAUCUACUGGGCUUACCUAA	0.0552 ± 0.014
CAAUUCCUCUGGAUCUACUGGGUCUACCUAA	0.501 ± 0.048
CAAAUGCUCUGGAUCUACUGGGUUACCUAA	0.176 ± 0.032
CUUAAGCUCUGGACUCUACUGGGUUACCUAA	0.0269 ± 0.0093
GAAUUCCACAGGAUCUACUGGGUUACCUAA	0.408 ± 0.05
CUUAUCCUCUGGAACUACUGGGUUACCAAA	0.143 ± 0.021
GAAUUGCUGUGGAUCUACUGGGUUACCUAA	0.253 ± 0.06
CUUUUCCUCUGGAUCUACUCGGUUUCCUAA	0.0499 ± 0.018
CUUAAGGAGUGGAUCUACUGGGUUACGCUAA	0.0985 ± 0.021
CUUAAGGUCUGGAUCAACAGGGUUACCUAA	0.0476 ± 0.0078
CAAUUCCUGUGGAUCUACUGGCUUACCUAA	0.0619 ± 0.017

Sequence	pre-steady-state target cleavage rate
CUUAAGGACUGGAUCUACUGGGUUACCAUA	0.0504 ± 0.037
CUUAAGCUCUGGAUCUACUGGGGUUACCUAA	0.0113 ± 0.0037
CUUAAGGAGUGGAUCUACUGGGUUUGCUAA	0.00454 ± 0.0037
CUAUUCCUCUGGAUCAUACUGGGUUACCUAA	0.016 ± 0.0067
CUUAAGGUCUGGAUCCUACUGGGUUACCUAA	0.041 ± 0.0085
GAAGUUCCUCUGGAUCUACUGGGUUACCUAA	0.103 ± 0.038
CUUAAGGAGUGGAUCAACUGGGUUACCUUA	0.00666 ± 0.0034
CAAUUCCUCUGGCUCUACUGGGUUACCUAA	0.66 ± 0.04
CUUAAGGACUGGAUCUACUGGGUUACUCUAA	0.206 ± 0.071
CAAUUCCUCUGGAUCUACUGGGUUACCUAU [g2:g29:cont:t1U]	0.502 ± 0.057
GAAUUCCUACUGGAUCUACUGGGUUACCUAA	0.463 ± 0.05
CUUAAGGAGAGGAUCUACUGGGUCUACCUAA	0.00756 ± 0.0024
CUAUUCCUCUGGAUCAACUCGGUUACCUAA	0.103 ± 0.02
GAAUUCCUCUCGGAUCUACUGGGUUACCUAA	0.442 ± 0.048
CAUUUCCUCUGGAUCUACUGGGUAACCUAA	0.259 ± 0.043
CUUAAGGUCAGGAUCUACUGGGUUUCCUAA	0.0082 ± 0.0039
CUUUUCCUCUGGAUCUACUGGGUUAUCUAA	0.477 ± 0.057
CUUAUCCUCUGGAUCUAUUGGGUUACCUAA	0.252 ± 0.042
CUUAAGGUCUGGAACUACUGGGUUACGUAA	0.318 ± 0.063
CUUAAGCUCAGGAUCUACUGGGUUACCUUA	0.25 ± 0.034
CUAAUCCUGUGGAUCUACUGGGUUACCUAA	0.427 ± 0.055
CAUUACCUCUGGAUCUACUGGGUUACCUAA	0.404 ± 0.051
